According to PubChem BioAssay AID651820 (National Center for Advancing Translational Sciences (NCATS), 2012):
Where “and” joins values, the source holds several entries; their conditions need not be identical. Equal values may be shown once. Screen size: about 340,000 compounds; about 12,000 (3.5%) were called active. This list was built around the results that the source calls inconclusive (neither active nor inactive); the mix of calls is not that of the screen. The call rests on the fitted dose curve; in most records, active means well fitted inhibition curve with a large enough effect; inconclusive means small, poorly fitted or top-dose-only effect, or another doubt; inactive means no such curve, though single readings can be large or run the other way. Where the call is inconclusive, the potency comes from a doubtful curve fit.

Experiment: qHTS Assay for Inhibitors of Hepatitis C Virus (HCV)
Settings: Huh7.5.1 HCVcc-Cre (HCVcc is cell-culture hepatitis C virus) infection, luciferase reporter, 44 h; series mostly up to 41.8 µM
How it was run: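 Cells seeded at 1,000/well and cultured 4 h, then compounds added followed by HCVcc-Cre virus (~0.5 moi). After 44 h further culture, luciferase substrate was added, plates held 15 min at room temperature, and luminescence read for 15 sec.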
Potency means the concentration at half of the fitted maximal effect; tags describe the fitted curve by direction and shape.

**Q.** With `CCCCN(C1CCS(=O)(=O)C1)S(=O)(=O)c1cc(C)ccc1C` (stereo unspecified) as the compound, how does the Potency read?
**A.** inconclusive: 2.51 µM [inhibitor, partial curve, poor fit]

**Q.** With `CN(Cc1ccccc1)CC(O)COc1ccc(CNCCc2ccncc2)cc1` (stereo unspecified) as the compound, how does the Potency read?
**A.** active: 12.6 µM

**Q.** Which Potency does the source give for `O=C(O)c1ccc(Cn2cc(/C=C\[N+](=O)[O-])c3ccccc32)o1` here?
**A.** inactive

**Q.** For `COc1ccc(-c2[nH]ncc2CN2CCCC(C(=O)c3cccc(OC)c3)C2)cc1` (stereo unspecified), which Potency is on record?
**A.** inconclusive: 31.6 µM [inhibitor, single point]

**Q.** For `CCOC(=O)c1cc(C(C)C)sc1NC(=O)COC(=O)c1nccnc1N`, which Potency is on record?
**A.** inconclusive: 11.2 µM [inhibitor, partial curve]

**Q.** For `O=C(O)CCCOc1ccc(Cl)cc1Cl`, which Potency is on record?
**A.** inactive

**Q.** For `Cc1cccn2c(=O)c3cc(C(=O)NCCCn4ccnc4)n(C)c3nc12`, which Potency is on record?
**A.** inconclusive: 10 µM [inhibitor, partial curve] and inconclusive: 11.2 µM [inhibitor, partial curve]

**Q.** Which Potency does the source give for `N#C/C(=C\c1cc2c(cc1Br)OCO2)c1ccc(C(=O)O)cc1` here?
**A.** inactive

**Q.** With `COc1cccc(NC(=O)c2cc3ccccc3cc2OC)c1` as the compound, how does the Potency read?
**A.** inactive

**Q.** Which Potency does the source give for `Cc1ccc(-c2cc3cccc[n+]3cc2-c2ccc(C)cc2)cc1` here?
**A.** inconclusive: 2 µM [inhibitor, full curve]

**Q.** With `COc1ccccc1N1CC(C(=O)Nc2ccc(C)c(S(=O)(=O)N3CCOCC3)c2)CC1=O` (stereo unspecified) as the compound, how does the Potency read?
**A.** inconclusive: 1.12 µM [inhibitor, full curve]

**Q.** Which Potency does the source give for `CCN(CC)C(=O)c1[nH]cnc1C(=O)N[C@@H](CC(C)C)C(=O)OC(C)(C)C` here?
**A.** inconclusive: 31.6 µM [inhibitor, single point]

**Q.** With `Cc1ccc(C(CCNC(C)c2cccs2)c2ccco2)cc1` (stereo unspecified) as the compound, how does the Potency read?
**A.** inactive

**Q.** For `Cn1/c(=N/N=C/c2ccccn2)sc2ccccc21`, which Potency is on record?
**A.** inconclusive: 7.08 µM [inhibitor, partial curve]

**Q.** For `CNc1nc(-c2ccccc2)[n+](-c2ccc(C)cc2)s1`, which Potency is on record?
**A.** inconclusive: 31.6 µM [inhibitor, single point]

**Q.** For `Cc1noc(NS(=O)(=O)c2ccc(NC(=O)CSc3nc4c(cc3C#N)CCCC4)cc2)c1C`, which Potency is on record?
**A.** inactive

**Q.** With `O=C(CCc1nc2sc3c(c2c(=O)[nH]1)CCCC3)NCCOc1ccccc1` as the compound, how does the Potency read?
**A.** inconclusive: 15.8 µM [inhibitor, single point]

**Q.** With `N#Cc1cccc(S(=O)(=O)NCC(=O)NCc2ccc3c(c2)OCO3)c1` as the compound, how does the Potency read?
**A.** inactive

**Q.** For `CN(C(=O)c1cccc(NC(=O)Cc2cccc([N+](=O)[O-])c2)c1)C1CCC1`, which Potency is on record?
**A.** inconclusive: 10 µM [inhibitor, partial curve]

**Q.** With `CC(C)(C)NC(=O)C1CC2CCCCC2CN1` (stereo unspecified) as the compound, how does the Potency read?
**A.** inactive

**Q.** Which Potency does the source give for `Cc1cc(C(=O)NC(=S)Nc2ccccc2N2CCCC2)ccc1[N+](=O)[O-]` here?
**A.** inconclusive: 3.55 µM [inhibitor, single point]

**Q.** For `CCCC(=O)Nc1sc(C)c(C)c1C#N`, which Potency is on record?
**A.** inactive

**Q.** Which Potency does the source give for `O=[N+]([O-])c1ccc(Nc2nc(N/N=C/c3cccc(F)c3)nc(N3CCCC3)n2)cc1` here?
**A.** inconclusive: 10 µM [inhibitor, partial curve]

**Q.** With `COc1cccc(/C=N/NC(=O)c2ccncc2)c1OC(=O)c1ccc(Br)cc1` as the compound, how does the Potency read?
**A.** inconclusive: 2 µM [inhibitor, partial curve]

**Q.** Which Potency does the source give for `CN(c1ccc(F)cc1)S(=O)(=O)c1ccc(Cl)c(C(=O)NC2(C)CCS(=O)(=O)C2)c1` (stereo unspecified) here?
**A.** inactive

**Q.** For `O=S(=O)(NC1CCN(Cc2ccccc2)CC1)c1ccc2ccccc2c1`, which Potency is on record?
**A.** inactive

**Q.** Which Potency does the source give for `CCc1ccccc1NC(=O)CN(C)C(=O)CSc1nnc(Nc2cccc(C)c2)s1` here?
**A.** inconclusive: 7.94 µM [inhibitor, partial curve]

**Q.** For `CCN(CC)S(=O)(=O)c1cccc(-c2nnc(SCCCC(=O)c3ccccc3)o2)c1`, which Potency is on record?
**A.** active: 15.8 µM

**Q.** Which Potency does the source give for `CCOC(=O)c1sc2nc(NC(=O)C(C)(C)C)sc2c1C` here?
**A.** inactive

**Q.** Which Potency does the source give for `O=C(COc1ccc([N+](=O)[O-])cc1)Nc1nc(-c2ccccn2)cs1` here?
**A.** active: 10 µM

**Q.** For `CCN1CCCC1CNC(=O)c1ccc(Sc2ccc(F)cc2)c([N+](=O)[O-])c1` (stereo unspecified), which Potency is on record?
**A.** active: 6.31 µM

**Q.** With `COc1ccc(NCc2cc3cc(OC)ccc3[nH]c2=O)cc1` as the compound, how does the Potency read?
**A.** inconclusive: 31.6 µM [inhibitor, partial curve, poor fit]

**Q.** For `CCOC(=O)C/C(C)=N/NC(=O)CN(c1ccc(Br)cc1)S(=O)(=O)c1ccccc1`, which Potency is on record?
**A.** inactive

**Q.** With `O=C(C1CCCN(S(=O)(=O)c2ccccc2[N+](=O)[O-])C1)N1CCN(c2ccccc2)CC1` (stereo unspecified) as the compound, how does the Potency read?
**A.** inconclusive: 10 µM [inhibitor, single point]

**Q.** For `CNC(=O)c1ccc(-c2ccc(Cl)c(Cl)c2)s1`, which Potency is on record?
**A.** inconclusive: 31.6 µM [inhibitor, single point]

**Q.** Which Potency does the source give for `O=C(Cc1ccccc1[N+](=O)[O-])Nc1nccs1` here?
**A.** inconclusive: 12.6 µM [inhibitor, single point]

**Q.** Which Potency does the source give for `Cc1ccc2ccc3cccnc3c2n1` here?
**A.** inconclusive: 1.26 µM [inhibitor, full curve]

**Q.** For `Cc1cc(O)c(CN2CCN(S(=O)(=O)c3cccs3)CC2)cc1C(C)C`, which Potency is on record?
**A.** inconclusive: 31.6 µM [inhibitor, single point]

**Q.** With `COc1ccc(-c2[nH]ncc2/C=N\NC(=O)c2ccc(Br)o2)cc1OC` as the compound, how does the Potency read?
**A.** inactive

**Q.** For `CC(=O)c1cccc(NC(=O)c2nc(-c3ccccc3)oc2C)c1`, which Potency is on record?
**A.** active: 15.8 µM

**Q.** For `Cc1ccc(S(=O)(=O)NCc2ccc(C(=O)N3CCN(c4ccccc4)CC3)cc2)cc1`, which Potency is on record?
**A.** inconclusive: 22.4 µM [inhibitor, single point]

**Q.** Which Potency does the source give for `Cc1ccc(N=c2oc3cc(O)ccc3cc2C(N)=O)cc1` here?
**A.** active: 11.2 µM

**Q.** For `c1ccc(CSC2=NNC(c3ccccn3)S2)cc1` (stereo unspecified), which Potency is on record?
**A.** inconclusive: 31.6 µM [inhibitor, single point]

**Q.** For `COc1ccccc1Oc1cc(C#N)c(C#N)cc1-n1nnc2ccccc21`, which Potency is on record?
**A.** inconclusive: 12.6 µM [inhibitor, single point]

**Q.** With `Nc1nc(N(Cc2ccccc2)Cc2ccccc2)nc(C(F)(F)F)n1` as the compound, how does the Potency read?
**A.** inconclusive: 20 µM [inhibitor, single point]

**Q.** For `CCN(CC)c1nc(C)nc2c1cnn2CCc1ccccc1`, which Potency is on record?
**A.** inconclusive: 14.1 µM [inhibitor, partial curve]
